“And” between values parts separate entries of the source, which are not always exact repeats. Identical values can stand only once.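 Assay format: 96-well plates, 48-hour exposure. GI50 marks 50% less growth.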 The source made the active and inactive calls. No stated cut-off is given here; in the data, active = GI50 up to about 1.1 µM and inactive = higher.
Each molecule was assayed on NCI-H322M (assay: growth of human tumour cells (NCI), 48 h).
For `CSc1ccc(/C=C2\N=C(c3ccccc3)N(c3nc4cc(Cl)c(F)cc4s3)C2=O)cc1`, the GI50 was inactive: > 100 µM. In the case of `Cc1cc2c(cc1-c1cc3c(cc1C)C(C(C)C)=C(O)C(=O)/C3=C\Nc1c(C)n(C)n(-c3ccccc3)c1=O)/C(=C/Nc1c(C)n(C)n(-c3ccccc3)c1=O)C(=O)C(O)=C2C(C)C`, the GI50 is reported as inactive: > 100 µM. In the case of `Nc1nc(Cl)c(N)c(NCC2(CO)CCC(OCc3ccccc3)C2)n1` (configuration not stated), the GI50 is reported as inactive: > 100 µM. In the case of `COc1ccc2c(c1)C1OCCNC1CC2` (configuration not stated), the GI50 is reported as inactive: > 100 µM. With `CCN1C[C@]2(COC)[C@H](O)C[C@H](OC)[C@]34C1[C@H]([C@H](OC)[C@H]23)[C@]1(OC(C)=O)[C@H]2[C@@H](OC(=O)c3ccccc3)[C@](O)(C[C@H]24)[C@@H](OC)[C@@H]1O` the GI50 was inactive: > 100 µM. For `COc1cc(CCN(C)C)cc(OC)c1OC`, the GI50 was inactive: > 100 µM. For `COc1ccc(/C=C/c2cnnc3ccccc23)cc1OC`, the GI50 was inactive: > 10 µM. In the case of `Cc1noc(-c2ccc(C(=O)O)[nH]2)c1Br`, the GI50 is reported as inactive: 91.2 µM. For `CCOC(=O)N1CCC(N[C@@H]2c3cc4c(cc3[C@@H](c3cc(OC)c(O)c(OC)c3)[C@H]3C(=O)OC[C@@H]32)OCO4)CC1`, the GI50 was inactive: 8.04 µM. With `C/C=C\C(CC(=O)NCCC1CN(C(=O)c2ccccc2)c2ccccc21)CC(=O)OC` (configuration not stated) the GI50 was inactive: > 100 µM. With `CCOC(=O)/C=C(/C(=O)OCC)n1ccc(=O)n(CC(=O)OCC)c1=O` the GI50 was inactive: 11.8 µM. In the case of `Cc1ccccc1NC(=O)C(=O)Cc1cnc2ccccc2n1`, the GI50 is reported as inactive: > 100 µM. `O=C(NCCCCNCCCNC(=O)c1ccccc1)c1ccccc1` was tested, and the GI50 was inactive: > 100 µM. For `Cc1ccc(NC(=O)CC2Sc3ccccc3NC2=O)c(C)c1` (configuration not stated), the GI50 was inactive: 17.9 µM. For `COc1ccc(C2OC2C(=O)C23CC4CC(CC(C4)C2)C3)cc1` (configuration not stated), the GI50 was inactive: > 100 µM. `COc1cc2c(cc1OC)CCc1cc(OC)c(OC)cc1CC2` was tested, and the GI50 was inactive: > 100 µM. In the case of `CCCC(=O)Nc1cc(/C=C/C(=O)N2CC(CCl)c3c2cc(O)c2[nH]cc(C)c32)n(C)c1` (configuration not stated), the GI50 is reported as active: < 2.5e-05 µM. With `NC(=O)c1cccc(OCC(O)CO)c1` (configuration not stated) the GI50 was inactive: > 100 µM. With `CC(=O)N1CCC(=O)/C(=C/c2ccccc2)C1` the GI50 was inactive: > 100 µM. `N#CC1(Cc2ccc(N)cc2)c2ccccc2C=CN1C(=O)c1ccccc1` (configuration not stated) was tested, and the GI50 was inactive: > 100 µM. With `O=C(O)Cc1cccnc1` the GI50 was inactive: > 100 µM. With `COc1cccc(Nc2nc(C)c([N+](=O)[O-])c(Nc3cccc(OC)c3)n2)c1` the GI50 was inactive: 27.6 µM. For `COc1cc2c3c(c1OC)C1(C=CC(=O)C=C1)C[C@H]3N(C)CC2` [PRONUCIFERINE], the GI50 was inactive: > 100 µM. In the case of `CCOC(=O)C1=C(C)NC(=O)N([N+](=O)[O-])C1c1ccccc1C(F)(F)F` (configuration not stated), the GI50 is reported as inactive: > 100 µM. In the case of `COc1cccc2c1C(=O)c1c(O)c3c(c(O)c1C2=O)C[C@@](O)(C(=O)CO)CC3OC1CC(N)C(OC2CCCCO2)C(C)O1` (some centres not stated), the GI50 is reported as inactive: 1.82 µM. For `COC1=CC(=O)c2c(c(-c3csc(C)n3)cn2C)C1=O`, the GI50 was inactive: 8.75 µM. With `CCN(CC)CCSc1nc2cccc([N+](=O)[O-])c2[nH]1` the GI50 was inactive: > 100 µM. With `Oc1cc(-c2ccc3c(c2)OCO3)nc2cc3c(cc12)OCO3` the GI50 was inactive: 34.8 µM. For `N#CC(/C(=N/NC(=O)C(=O)NN)C(=O)NC12CC3CC(CC(C3)C1)C2)c1ccccc1` (configuration not stated), the GI50 was inactive: > 100 µM. For `Nc1nccc(NCC2(CO)CC(OCc3ccccc3)C2)n1` (configuration not stated), the GI50 was inactive: > 100 µM. In the case of `CCOC(=O)/C=C(/N=P(c1ccccc1)(c1ccccc1)c1ccccc1)C(F)(F)F`, the GI50 is reported as inactive: > 10 µM. With `CCCC(=O)c1ccc(=O)n(C)c1` the GI50 was inactive: > 100 µM. With `COc1ccc(-c2c(C(C)=O)c(-c3ccccc3)n(C3OC(COC(C)=O)C(OC(C)=O)C(OC(C)=O)C3OC(C)=O)c(=S)c2C#N)cc1O` (configuration not stated) the GI50 was inactive: > 100 µM and inactive: 89.7 µM. With `Nc1ccc(S2(c3ccc(N)cc3)C=C(c3ccccc3)C(c3ccccc3)=C2)cc1` the GI50 was inactive: > 41.1 µM. With `NC(=S)N/N=C1\NC(=O)/C(=C/c2ccc3c(c2)OCO3)S1` the GI50 was inactive: 27.4 µM. For `BrP(NC1CCCCCC1)(c1ccccc1)(c1ccccc1)c1ccccc1`, the GI50 was inactive: 13.1 µM. With `Cc1[nH]c2cc([N+](=O)[O-])ccc2c1[N+](=O)[O-]` the GI50 was inactive: 22.2 µM. For `Cc1ccc(C2(c3ccc(C)cc3)SC(=C(C#N)C#N)c3ccccc32)cc1`, the GI50 was inactive: > 100 µM. In the case of `COc1cccc(N2C(=O)/C(=C\c3ccccc3)SC2c2cc(OC)c(OC)c(OC)c2)c1` (configuration not stated), the GI50 is reported as inactive: 31 µM. With `CC(=O)O[C@H]1C(=O)[C@@]2(C)[C@H]([C@H](OC(=O)c3ccccc3)[C@]3(O)C[C@H](OC(=O)[C@H](OC(=O)OCCC(O)CO)[C@@H](NC(=O)c4ccccc4)c4ccccc4)C(C)=C1C3(C)C)[C@]1(OC(C)=O)CO[C@@H]1C[C@@H]2O` (some centres not stated) the GI50 was active: < 0.01 µM. For `CCOC(=O)C=C1CCN(C(=O)c2ccccc2)CC1`, the GI50 was inactive: > 100 µM. In the case of `CCNC(=S)NNC(=O)c1csc(NC(=S)NC2CCCCC2)n1`, the GI50 is reported as inactive: 8.22 µM.

From ChEMBL document CHEMBL1201862, “PubChem BioAssay data set” (2004)
